According to PubChem BioAssay AID720709 (National Center for Advancing Translational Sciences (NCATS), 2013):
Several values for one entry are separate records, joined by “and”; a condition that tells them apart may be missing. Equal entries are not always repeated. Among all 360,000 compounds or so, about 520 (0.14%) were called active. Inconclusive results, whose numbers are uncertain, are shown with a selection of clear calls. Calls come from the whole dose curve; as a rule, active = well fitted inhibition curve with a large enough effect; inconclusive = small, poorly fitted or top-dose-only effect; inactive = no such curve, though single readings can be large or run the other way. Potencies beside an inconclusive call are fits to weak or partial responses and may not hold up.

biological target: Rap guanine nucleotide exchange factor 3 (Homo sapiens) (UniProt O95398); assay: qHTS for Antagonist of cAMP-regulated guanine nucleotide exchange factor 3 (EPAC1): primary screen; conditions: EPAC1 GEF assay, Rap1b-BODIPY-GDP exchange fluorescence; activity change, negative = inhibition: at 115 µM (top of the series); note: nearly all actives have a fitted effect of over 50% in size;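 for activity change, negative = inhibition: plate controls were vehicle for no effect and positive control for full effect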
Potency is the fitted concentration of half-maximal effect; tags give direction and shape of the fitted curve.

UniProt O95398, sequence (O95398 whole entry, looked up): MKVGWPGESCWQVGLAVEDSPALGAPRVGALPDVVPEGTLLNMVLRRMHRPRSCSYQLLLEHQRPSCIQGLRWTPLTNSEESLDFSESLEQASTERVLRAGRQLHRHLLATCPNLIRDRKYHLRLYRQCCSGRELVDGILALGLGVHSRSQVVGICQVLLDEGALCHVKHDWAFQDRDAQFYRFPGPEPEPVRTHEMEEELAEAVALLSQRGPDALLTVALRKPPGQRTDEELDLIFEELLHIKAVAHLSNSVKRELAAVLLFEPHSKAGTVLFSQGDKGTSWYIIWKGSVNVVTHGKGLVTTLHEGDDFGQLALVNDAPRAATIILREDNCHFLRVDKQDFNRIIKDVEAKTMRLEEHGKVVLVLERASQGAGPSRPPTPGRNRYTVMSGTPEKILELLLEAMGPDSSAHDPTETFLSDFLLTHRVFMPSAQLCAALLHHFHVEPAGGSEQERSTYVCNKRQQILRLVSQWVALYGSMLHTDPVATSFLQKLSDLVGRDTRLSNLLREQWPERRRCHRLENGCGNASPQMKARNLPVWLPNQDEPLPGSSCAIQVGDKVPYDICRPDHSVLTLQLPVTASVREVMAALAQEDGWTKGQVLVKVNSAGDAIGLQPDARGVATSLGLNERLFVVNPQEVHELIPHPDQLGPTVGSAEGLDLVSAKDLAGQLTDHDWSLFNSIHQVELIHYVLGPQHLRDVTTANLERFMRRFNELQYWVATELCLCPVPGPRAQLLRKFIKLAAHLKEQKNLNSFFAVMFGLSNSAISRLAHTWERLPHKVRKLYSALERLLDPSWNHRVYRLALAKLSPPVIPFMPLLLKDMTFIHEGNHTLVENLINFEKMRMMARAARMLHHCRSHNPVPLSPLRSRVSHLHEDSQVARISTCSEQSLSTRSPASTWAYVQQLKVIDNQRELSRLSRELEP

SMILES	Potency	activity change, negative = inhibition
COC(=O)Cc1[nH]nc2c1C(C1C=CCCC1)C(C#N)=C(N)O2 (stereo unspecified)	inconclusive: 44.7 µM [inhibitor, partial curve, poor fit]	
CN(Cc1ccc(C(F)(F)F)cc1)C(=O)C1CC(=O)N(Cc2ccco2)C1 (stereo unspecified)	inconclusive: 100 µM [inhibitor, single point]	
C=C1N(C)c2cc([N+](=O)[O-])c(N)cc2C1(C)C	inactive	
Cc1ccc(S(=O)(=O)c2nc(-c3ccco3)oc2SC(C)C)cc1	inactive	
O=C(O)Cc1c[nH]c2ccc(O)cc12	inactive	
CC(C)c1onc(C(=O)NC2CCCCC2)c1[N+](=O)[O-]	inconclusive: 89.1 µM [inhibitor, single point]	
CCCc1ccc(-c2ccc(C(=O)O)cc2)nc1	inconclusive: 28.2 µM [inhibitor, single point]	
COc1ccc(C(=O)NCC(=O)NCC(=O)OCC(=O)c2cccs2)cc1	inconclusive: 3.16 µM [inhibitor, full curve, poor fit]	
CCc1nnc(NS(=O)(=O)c2ccc(N=Cc3c(C)[nH]n(-c4cccc(Cl)c4)c3=O)cc2)s1	inconclusive: 89.1 µM [inhibitor, single point]	
CSc1ccc(S(=O)(=O)NCC(=O)OCC(=O)N2CC(C)CC(C)C2)cc1[N+](=O)[O-] (stereo unspecified)	inconclusive: 39.8 µM [inhibitor, partial curve, poor fit]	
COc1cc(-c2nc(C(F)(F)F)c(OC)o2)cc(OC)c1OC	inconclusive: 89.1 µM [inhibitor, single point]	
Nc1ccccc1C#CC(=O)c1ccccc1	inconclusive: 44.7 µM [inhibitor, full curve]	
Cc1ccc(Cc2c(-c3ccco3)nc3ccc(Br)cn23)cc1	inconclusive: 100 µM [inhibitor, partial curve, poor fit]	
CC(C)CC1Nc2ncnc(N3CCN(c4ccccn4)CC3)c2N(Cc2ccc(Cl)cc2)C1=O (stereo unspecified)	inconclusive: 44.7 µM [inhibitor, partial curve]	
CC(C)(C)c1ccc(OCC(=O)Nc2ccc(C(=O)Nc3ccccc3C(=O)O)cc2)cc1	inconclusive: 89.1 µM [inhibitor, single point]	
CC(=C\c1ccccc1)/C=C1/SC(=S)N(CCCC(=O)O)C1=O	inconclusive: 8.91 µM [inhibitor, full curve]	
CCOc1ccc(NC(=O)COc2ccc(N3CC(C(N)=O)CC3=O)cc2)cc1 (stereo unspecified)	inconclusive: 100 µM [inhibitor, single point]	
C=CCNC(=O)N1CCC(n2nccc2NC(=O)CCCc2ccccc2)CC1	inconclusive: 3.16 µM [inhibitor, full curve, poor fit]	
COc1ccc(Cn2c(=S)[nH]c3cc(OC)c(OC)cc3c2=O)cc1	inconclusive: 2.82 µM [inhibitor, full curve, poor fit]	
CS/C(=N\S(=O)(=O)c1cccs1)NC(=O)CSc1nc2ccccc2s1	inconclusive: 89.1 µM [inhibitor, single point] and inconclusive: 3.55 µM [inhibitor, full curve, poor fit]	
CCOc1cc(/C=N/NC(=O)C(N)=O)cc(Br)c1O	inconclusive: 100 µM [inhibitor, single point]	
Cc1n[nH]c(=O)c2c1nnn2Cc1ccccc1Cl	inconclusive: 39.8 µM [inhibitor, single point]	

SMILES	Potency	activity change, negative = inhibition
Cc1cccc(OCC(=O)Nc2ccccc2N2CCCCC2)c1C	inactive	
CCO[C@H]1OC(C(=O)N2CCOCC2)=C[C@@H](c2coc3ccccc3c2=O)[C@@H]1CCCO	inconclusive: 100 µM [inhibitor, single point]	
CC(C)C[C@H](NC(=O)c1[nH]cnc1C(=O)Nc1ccccc1F)C(=O)OC(C)(C)C	inconclusive: 50.1 µM [inhibitor, partial curve, poor fit]	
CCOc1cc(/C=N/NC(N)=O)ccc1OCC(=O)Nc1ccc(C)c(C)c1	inconclusive: 79.4 µM [inhibitor, single point]	
CCN(CC)S(=O)(=O)c1cc(NC(=O)Cn2ncc(Cl)c(Cl)c2=O)ccc1C	inconclusive: 89.1 µM [inhibitor, partial curve, poor fit]	
O=C(O)COc1ccccc1/C=N/NC(=O)COc1ccc(-c2ccccc2)cc1	inconclusive: 100 µM [inhibitor, partial curve]	
CNC(=O)CN1C(=O)NC(c2ccccc2)(c2ccccc2)C1=O	inconclusive: 89.1 µM [inhibitor, partial curve]	
CC(C)C[C@H]1CN=C(Nc2ccccc2)N1CCC1CCCCC1	inactive	
O=C1NC(c2ccccc2)=C(c2ccc3ccccc3n2)C(c2ccc(F)cc2)N1 (stereo unspecified)	inconclusive: 28.2 µM [inhibitor, full curve, poor fit]	
O=C(Nc1cc(-c2ccccc2)nn1-c1ccccc1)c1ccccc1F	inconclusive: 89.1 µM [inhibitor, single point]	
O=C1N(Cc2cccc(Cl)c2)C[C@@H]2C[C@@H](c3cccn3-c3nccs3)N3CCC[C@@]123	inconclusive: 89.1 µM [inhibitor, single point]	
Cc1ccccc1S(=O)(=O)Cc1ccc(C(=O)NCc2ccccc2)o1	inconclusive: 89.1 µM [inhibitor, single point]	
CSc1ncnc2c1ncn2CCCN[C@H](C)c1cccc2ccccc12	inactive	
COc1ccc(-c2cc3nc(-c4ccccc4)cc(N4CCCC(O)C4)n3n2)cc1 (stereo unspecified)	inconclusive: 12.6 µM [inhibitor, full curve, poor fit]	
CCOC(=O)/C=C/C(=O)Nc1ccc(S(=O)(=O)N(C)c2ccccc2)cc1	inconclusive: 100 µM [inhibitor, single point]	
Cc1ccc(C)c(NC(=O)c2cc(-c3ccccc3O)n[nH]2)c1	inactive	
CCCCn1nnnc1C(c1cc2ccccc2o1)N(C)Cc1ccc(Cl)c(Cl)c1 (stereo unspecified)	inactive	
COc1ccc(C2/C=C\CN(C(=O)C3CCCC3)CC(=O)N2Cc2ccc(F)cc2)cc1 (stereo unspecified)	inconclusive: 22.4 µM [inhibitor, partial curve]	
COC1=C(Br)C(=O)c2ncccc2C1=O	inconclusive: 15.8 µM [inhibitor, full curve]	
CCN(CC)c1ccc2cc(-c3nnc(-c4ccncc4)o3)c(=O)oc2c1	inactive	
O=C(Nc1nc(-c2ccco2)c(-c2ccco2)s1)c1ccc(F)cc1F	inconclusive: 89.1 µM [inhibitor, single point]	
O=C(O)Cn1c2ccccc2c2n[nH]c(=S)nc21	inconclusive: 31.6 µM [inhibitor, partial curve]	

SMILES	Potency	activity change, negative = inhibition
CC(C)(C)c1ccc(S(=O)(=O)CCc2ccccn2)cc1	inactive	
O=c1[nH]c(CSc2nnc(-c3ccccc3)n2-c2ccccc2)nc2ccccc12	inconclusive: 31.6 µM [inhibitor, single point]	
CS(=O)(=O)N1CCN(c2ccc(NC(=S)NC(=O)c3cccs3)cc2)CC1	inconclusive: 100 µM [inhibitor, single point]	
COc1ccc(S(=O)(=O)Nc2cccc3c2O[C@H](CN(C)C(=O)NC(C)C)[C@@H](C)CN([C@H](C)CO)C3=O)cc1		inconclusive: -10.9% [inhibitor]
Cn1cccc1C(=O)c1cccc([N+](=O)[O-])c1	inactive	
Cc1nc2ccccc2n1CSc1ccccc1	inconclusive: 89.1 µM [inhibitor, single point]	
C=CCn1c(O)c(N=NC(=O)CNC(=O)/C=C/c2ccc(OC)cc2)c2ccccc21	inconclusive: 28.2 µM [inhibitor, single point]	
N#CC1C(=O)NC(c2ccccc2)=CC1c1ccccc1 (stereo unspecified)	inactive	
CC12CCC3c4ccc(O)cc4CCC3C1CCC2=O (stereo unspecified)	inactive	
COc1ccc(S(=O)(=O)c2c(O)c3ccc(C(=O)Nc4cccc(F)c4)cc3[nH]c2=O)cc1	inconclusive: 100 µM [inhibitor, single point]	
Cc1ccc(-n2c(SCC(=O)NC3CCS(=O)(=O)C3)nc3ccccc3c2=O)cc1 (stereo unspecified)	inconclusive: 89.1 µM [inhibitor, single point]	
O=C1/C(=C\c2cccc(O)c2O)SC(=S)N1Cc1ccccc1	inconclusive: 50.1 µM [inhibitor, partial curve]	
O=C(NNc1cccc(Cl)n1)c1cccnc1Cl	inactive	
C=CCSC1=N/C(=C\c2ccc(C(=O)O)cc2)C(=O)S1	inactive	
O=C(N/N=C/c1ccc(-c2ccccc2C(=O)O)o1)c1cccs1	inactive	
Cc1cc(Br)ccc1NC(=O)CN1C(=O)C2CC=CCC2C1=O (stereo unspecified)	inconclusive: 70.8 µM [inhibitor, partial curve]	
CCOc1ccc(CN2C(=O)CC(=O)N(S(=O)(=O)c3ccc(OCC)cc3)C2=O)cc1	inconclusive: 15.8 µM [inhibitor, partial curve]	
O=C(NC(=S)NC1CCCC1)c1ccccc1	inactive	
CC(C)N(C(=O)CN1CCN(C(=O)C2COc3ccccc3O2)CC1)C(C)C (stereo unspecified)	inconclusive: 3.55 µM [inhibitor, full curve, poor fit]	
Cc1c(C(=O)NCc2ccco2)oc2ccccc12	inconclusive: 39.8 µM [inhibitor, partial curve]	
CN(C)S(=O)(=O)c1ccc(NC(=O)CSc2ncnc3ccccc23)cc1	inconclusive: 100 µM [inhibitor, single point]	
Cc1nc(NC(C)c2ccccc2)sc1C(=O)Nc1ccccc1 (stereo unspecified)		inconclusive: -14.6% [inhibitor]
